Measured values taken from the antibiotic and cytotoxicity screens of Wong et al. (2023).
The other results are listed elsewhere or left out.

Experiments:
HSkMC = human skeletal muscle cells; assay: cytotoxicity call (relative viability < 0.9); conditions: 10 µM
HepG2 = assay: cytotoxicity call (relative viability < 0.9); conditions: 10 µM
S. aureus RN4220 = assay: growth inhibition call (relative growth <= 0.2); conditions: 50 µM

Row | Structure (SMILES) | cytotoxicity call (HSkMC) | cytotoxicity call (HepG2) | growth inhibition call (S. aureus RN4220)
1 | CCN(CC)c1ccc(N2CC=C[C@@]34O[C@@H]5C=CCOC(=O)[C@@H]5[C@H]3C(=O)N([C@@H](CO)C(C)C)[C@@H]4C2=O)cc1 | inactive | inactive | inactive
2 | COc1ccccc1-c1cnc2c(c1)C(=O)N([C@H](C)CO)C[C@H](C)[C@@H](CN(C)C(=O)c1ccncc1)O2 | inactive | inactive | inactive
3 | C[C@H]1CN([C@@H](C)CO)C(=O)Cc2cc(NC(=O)Nc3ccccc3)ccc2O[C@@H]1CN(C)C(=O)Nc1cccc2ccccc12 | inactive | inactive | inactive
4 | COc1ccc(NC(=O)N(C)C[C@H]2Oc3ccc(NC(=O)Nc4cccc5ccccc45)cc3C(=O)N([C@H](C)CO)C[C@H]2C)cc1 | inactive | inactive | inactive
5 | O=C(NO)c1cccc(C(=O)N/N=C/[C@H](O)[C@@H](O)[C@H](O)[C@H](O)CO)c1 | inactive | inactive | inactive
6 | OC[C@H]1O[C@@H](OCc2ccccc2)[C@H](O)[C@@H](O)[C@@H]1O | inactive | inactive | inactive
7 | CN1C(=O)c2cc(NC(=O)C3CCOCC3)ccc2OC[C@@H]2O[C@H](CC(=O)NCCc3ccncc3)CC[C@H]21 | inactive | inactive | inactive
8 | Cc1noc(C)c1NC(=O)N(C)C[C@@H]1Oc2ncc(C#CCN(C)C)cc2C(=O)N([C@H](C)CO)C[C@H]1C | inactive | inactive | inactive
9 | C[C@@H]1CCCCO[C@H](CN(C)S(C)(=O)=O)[C@H](C)CN([C@@H](C)CO)C(=O)c2cc(NS(=O)(=O)c3ccccc3)ccc2O1 | inactive | inactive | inactive
10 | COC(=O)C[C@H]1O[C@]2(C(=O)N(Cc3ccccc3)c3ccc(I)cc32)[C@@H](C)[C@@H]1[Si](C)(C)c1ccc(OC)cc1 | inactive | inactive | inactive
11 | CN1CC(=O)NC1=O | inactive | inactive | inactive
12 | C[C@H]1CN([C@@H](C)CO)C(=O)Cc2cc(NC(=O)NC3CCCCC3)ccc2O[C@@H]1CN(C)S(=O)(=O)c1cn(C)cn1 | inactive | inactive | inactive
13 | COCCOC(=O)N1C(=O)[C@@]2(c3cc(C#Cc4ccc(OC)cc4)ccc31)[C@H](C(=O)N1CCCCCCC1)[C@H]1C(=O)O[C@H](c3ccccc3)[C@H](c3ccccc3)N1[C@@H]2c1ccc(OCCO)cc1 | inactive | inactive | inactive
14 | CN(C)C(=O)C[C@H]1CC[C@H](NC(=O)C2CC2)[C@H](CO)O1 | inactive | inactive | inactive
15 | O=C1O[C@@H](c2ccccc2)[C@@H](c2ccccc2)N2[C@@H](c3ccc(OCCO)cc3)[C@]3(C(=O)Nc4ccccc43)[C@@H](C(=O)N3CCCCCCC3)[C@H]12 | inactive | inactive | inactive
16 | C[C@H](CO)N1C[C@H](C)[C@H](CN(C)C(=O)Nc2cccc3ccccc23)OCCCC[C@H](C)Oc2ccc(NC(=O)Nc3cccc4ccccc34)cc2C1=O | inactive | inactive | inactive
17 | COCC(=O)Nc1ccc2c(c1)OC[C@@H](C)N(C(=O)c1ccccc1F)C[C@@H](C)[C@@H](OC)CN(C)C2=O | inactive | inactive | inactive
18 | C[C@H](CO)N1C[C@H](C)[C@H](CN(C)Cc2ccc(-c3ccccc3)cc2)Oc2c(NC(=O)C3CCCCC3)cccc2C1=O | inactive | inactive | inactive
19 | C[C@H](CO)N1C[C@H](C)[C@@H](CN(C)C(=O)Nc2ccc3c(c2)OCO3)OCCCC[C@H](C)Oc2ccc(NC(=O)C3CCCCC3)cc2C1=O | inactive | inactive | inactive
20 | CCCNC(=O)N1C[C@H](O)COC[C@@H]2O[C@@H](CC(=O)NCc3ccncn3)CC[C@H]21 | inactive | inactive | inactive
21 | CS(=O)(=O)N1CCc2ccc(N)cc2C1 | inactive | inactive | inactive
22 | COc1ccc(S(=O)(=O)N(C)C[C@@H]2Oc3cc(Br)ccc3S(=O)(=O)N([C@H](C)CO)C[C@@H]2C)cc1 | inactive | inactive | inactive
23 | CN(C)CCCNC(=O)C[C@@H]1C=C[C@@H](NC(=O)Cc2cccnc2)[C@H](CO)O1 | inactive | inactive | inactive
24 | Cc1ccc(S(=O)(=O)N2C[C@H](O)COC[C@H]3O[C@H](CC(=O)N[C@@H]4CCN(Cc5ccccc5)C4)CC[C@@H]32)cc1 | inactive | inactive | inactive
25 | C[C@@H]1CN([C@@H](C)CO)C(=O)c2cccc(NC(=O)Nc3ccc(C(F)(F)F)cc3)c2O[C@H]1CN(C)S(=O)(=O)c1ccc(Cl)cc1 | inactive | inactive | inactive
26 | C[C@H]1CN([C@@H](C)CO)C(=O)c2c(c3ccccc3n2C)-c2ccccc2CO[C@H]1CN(C)Cc1ccc(Cl)c(Cl)c1 | inactive | inactive | inactive
27 | CCC[C@@H](O)C#Cc1cnc2c(c1)C(=O)N([C@H](C)CO)C[C@H](C)[C@H](CN(C)S(=O)(=O)c1cn(C)cn1)O2 | inactive | inactive | inactive

Row | Structure (SMILES) | cytotoxicity call (HSkMC) | cytotoxicity call (HepG2) | growth inhibition call (S. aureus RN4220)
28 | C[C@H](CO)N1C[C@H](C)[C@H](CN(C)CC2CC2)Oc2ccc(NS(=O)(=O)c3cn(C)cn3)cc2C1=O | inactive | inactive | inactive
29 | COc1ccc(S(=O)(=O)Nc2ccc3c(c2)C(=O)N([C@H](C)CO)C[C@H](C)[C@H](CN(C)Cc2ccc(Cl)c(Cl)c2)OCCCC[C@@H](C)O3)cc1 | inactive | active | inactive
30 | CC(C)NC(=O)N(C)C[C@H]1Oc2ccc(NS(=O)(=O)c3ccc(F)cc3)cc2C(=O)N([C@H](C)CO)C[C@@H]1C | inactive | inactive | inactive
31 | C[C@@H]1CN([C@H](C)CO)C(=O)Cc2cc(NS(=O)(=O)c3ccccc3)ccc2O[C@@H]1CN(C)Cc1ccc2c(c1)OCO2 | inactive | inactive | inactive
32 | Cl.Cl.NCCCCN | inactive | inactive | inactive
33 | COc1ccc(S(=O)(=O)N(C)C[C@@H]2Oc3ccc(NS(=O)(=O)c4c(C)noc4C)cc3C(=O)N([C@H](C)CO)C[C@@H]2C)cc1 | inactive | active | inactive
34 | N[C@@H]1CC[C@@H](CCn2cc(C3CCCCC3)nn2)O[C@H]1CO | inactive | inactive | inactive
35 | O=C(Nc1ccc(Cl)cc1)Nc1ccc(Cl)c(Cl)c1 | active | active | active
36 | O=C(C[C@@H]1C[C@H]2c3cc(NC(=O)c4ccc5c(c4)OCO5)ccc3O[C@H]2[C@@H](CO)O1)NCCc1ccccc1 | inactive | inactive | inactive
37 | C[C@H]1CN([C@@H](C)CO)C(=O)c2cccc(NC(=O)c3cnccn3)c2O[C@H]1CN(C)S(=O)(=O)c1cccs1 | inactive | inactive | inactive
38 | Cc1ccc(S(=O)(=O)N(C)C[C@H]2OCCCC[C@H](C)Oc3ccc(NC(=O)Nc4ccc(F)cc4)cc3C(=O)N([C@H](C)CO)C[C@H]2C)cc1 | inactive | inactive | inactive
39 | COCC(=O)N1C[C@@H](C)[C@@H](OC)CN(C)C(=O)c2cc(NC(=O)c3ccc(F)cc3)ccc2OC[C@@H]1C | inactive | inactive | inactive
40 | C[C@H](CO)N1C[C@H](C)[C@H](CN(C)Cc2ccc(C(=O)O)cc2)OCCCC[C@H](C)Oc2ccc(NC(=O)NC3CCCCC3)cc2C1=O | inactive | inactive | inactive
41 | COCCC(=O)N1CCN(c2ccccn2)CC1 | inactive | inactive | inactive
42 | C[C@H]1CN([C@@H](C)CO)C(=O)Cc2cc(NC(=O)Cn3cnnn3)ccc2O[C@@H]1CN(C)CC1CC1 | inactive | inactive | inactive
43 | C[C@H](CO)N1C[C@H](C)[C@H](CN(C)C(=O)Nc2ccc(C(F)(F)F)cc2)Oc2ccc(NC(=O)Nc3cccc4ccccc34)cc2C1=O | inactive | inactive | inactive
44 | C[C@@H]1CCCCO[C@@H](CN(C)C(=O)Nc2ccc(F)cc2)[C@H](C)CN([C@@H](C)CO)C(=O)c2cc(NS(=O)(=O)c3cccs3)ccc2O1 | inactive | inactive | inactive
45 | C[C@H](CO)N1C[C@H](C)[C@@H](CN(C)Cc2ccc(-c3ccccc3)cc2)Oc2ccc(NC(=O)Cc3cn(C)c4ccccc34)cc2C1=O | inactive | inactive | inactive
46 | CCCC#Cc1cnc2c(c1)C(=O)N([C@@H](C)CO)C[C@H](C)[C@@H](CN(C)S(=O)(=O)c1cccc(OC)c1)O2 | inactive | inactive | inactive
47 | Cc1cc(C(=O)Nc2cccc3c2O[C@H](CN(C)C(=O)NC(C)C)[C@H](C)CN([C@H](C)CO)C3=O)n(C)n1 | inactive | inactive | inactive
48 | Cc1noc(C)c1S(=O)(=O)Nc1ccc2c(c1)C(=O)N([C@H](C)CO)C[C@@H](C)[C@H](CN(C)C(=O)Nc1ccccc1)O2 | inactive | inactive | inactive
49 | C[C@H](CO)N1C[C@H](C)[C@@H](CN(C)S(=O)(=O)c2ccc(F)cc2)OCCCC[C@H](C)Oc2ccc(NS(=O)(=O)c3cn(C)cn3)cc2C1=O | inactive | inactive | inactive
50 | C[C@@H]1CN([C@H](C)CO)C(=O)c2cc(C#CC3(O)CCCC3)cnc2O[C@H]1CN(C)C(=O)C1CCOCC1 | inactive | inactive | inactive
51 | COc1ccc(-c2cc(=O)c3c(O)cc(O[C@@H]4O[C@H](CO[C@H]5O[C@H](C)[C@@H](O)[C@H](O)[C@@H]5O)[C@@H](O)[C@H](O)[C@H]4O)cc3o2)cc1O | inactive | inactive | inactive
52 | Cc1ccc(S(=O)(=O)N(C)C[C@@H]2Oc3ccc(NS(=O)(=O)c4cn(C)cn4)cc3CC(=O)N([C@@H](C)CO)C[C@H]2C)cc1 | inactive | inactive | inactive
53 | CN1C(=O)c2cc(NC(=O)c3ccc(C(F)(F)F)cc3)ccc2OC[C@H]2O[C@H](CC(=O)NC3Cc4ccccc4C3)CC[C@H]21 | inactive | active | inactive
54 | Cc1ccc(S(=O)(=O)Nc2cccc3c2O[C@@H](CN(C)S(=O)(=O)c2cn(C)cn2)[C@@H](C)CN([C@@H](C)CO)C3=O)cc1 | inactive | inactive | inactive
